# Measured values published in publication PMC12136788.
# Some of the results follow.
# T1: UNK ZnF1-6 (called full-length) (human, UniProt Q9C0B0 30-357)
# T1 sequence: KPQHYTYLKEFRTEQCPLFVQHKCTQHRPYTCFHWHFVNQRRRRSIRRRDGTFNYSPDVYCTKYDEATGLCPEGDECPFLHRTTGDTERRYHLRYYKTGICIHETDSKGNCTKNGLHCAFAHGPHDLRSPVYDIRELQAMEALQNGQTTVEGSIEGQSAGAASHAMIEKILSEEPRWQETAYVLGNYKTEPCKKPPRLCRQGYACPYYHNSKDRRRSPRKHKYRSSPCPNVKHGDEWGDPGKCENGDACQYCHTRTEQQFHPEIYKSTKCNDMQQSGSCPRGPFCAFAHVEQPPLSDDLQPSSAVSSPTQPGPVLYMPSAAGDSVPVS
# B1: chr12:48782793:48782894:-|CDS|ENSG00000174233|msi1|FALSE|unique (ssRNA)
# RNA: GGGAGUUCUACAGUCCGACGAUCGCACUGUUGGCCUGUGCCGCCGCCCUGUUCGUGGGGCUCAUGGUGGUGUGUAACCGGCAUAGCUUCCGCCAGGACUCCAUGUGGGUGGUGAGCUACGUGGUGCUGGGCAUCCUGGCGGCACAACAGAGGAUUGAGCAUCA
# B2: ENSG00000241258:stop:overlap|stop_codon|ENSG00000241258|stop_codon|NA|stop_codon (ssRNA)
# RNA: GGGAGUUCUACAGUCCGACGAUCAGGCUGAGCAGAAGAAGAAUACAAACAGCAAUGUGGCAAUGGACGAAGAGGACCCAGCAUAGAAGAGCACAGCUGGCCCCGGCGUUUCAUGAAGUCAGAAGGCCUGGCAGCCAUUUCCUGCAACAGAGGAUUGAGCAUCA
# B3: ENSG00000124766:be:win_3301|3pUTR|ENSG00000124766|bound_else_gene|NA|bound_elsewhere_windowed (ssRNA)
# RNA: GGGAGUUCUACAGUCCGACGAUCAAUCUGCAGGCUUCUUAAAGUGACAGUAUCCCUUAACCUGCCACCAGUGUCCACCCUCCGGCCCCCGUCUUGUAAAAAGGGGAGGAGAAUUAGCCAAACACUGUAAGCUUUUAAGAAAAACAACAGAGGAUUGAGCAUCA
# B4: chr17:67340809:67340863:-|CDS_3pUTR|ENSG00000197170|msi1_unk|total|mutant (ssRNA)
# RNA: GGGAGUUCUACAGUCCGACGAUCACAAAACUACGCAUCUCACCGCCAAAGAGGAGAUGAUACAUAAUCUACAAUAAGGGUCUCCGUGCUUCCGAAAAAAGUUAAAAUUGGAAGUCAUUAAAAAAAGACUGUUAUAAUGGUGUACAACAGAGGAUUGAGCAUCA
# B5: chr21:32314052:32314153:-|3pUTR|ENSG00000142207|msi1|FALSE|unique (ssRNA)
# RNA: GGGAGUUCUACAGUCCGACGAUCCAUCUCAAAAAAAUAAAAAAAUAAAGUUUGUUUUUCUAUAAAAAGUCAUAACAAAGUAUUAGUAUGACUUUUUGAAUAAGUUAAUUUCUGCCAGUGUUUAAUUAUUUUAUUAAAGAAAAGCAACAGAGGAUUGAGCAUCA
# B6: chr5:78476397:78476521:+|3pUTR|ENSG00000085365|msi1|total|mutant (ssRNA)
# RNA: GGGAGUUCUACAGUCCGACGAUCAUAUAAGAAGUUUAUAUAAUAUGCAGUACAUUAUCCAAAAGAGAAGGCCGUUAAUGCAGCCGAAAGCCGUGGUAAUAAUUCCUUUUUAAAAAAAUUUCGGCCGUCAUACCGUAACAUUUUCAACAGAGGAUUGAGCAUCA
# B7: ENSG00000067715:stop:overlap|stop_codon|ENSG00000067715|stop_codon|NA|stop_codon (ssRNA)
# RNA: GGGAGUUCUACAGUCCGACGAUCAGGAGAAGUUUAUGAAUGAGUUGCAUAAAAUUCCAUUUCAAAGGAAAGAGAGUACCAAUUAGACAAGGGAAGAAGAUGAGAGACUGCCUGAACAGCAUCACUUUUGUAAACUGAGAGUUCCAACAGAGGAUUGAGCAUCA
# B8: ENSG00000127483:stop:overlap|stop_codon|ENSG00000127483|stop_codon|NA|stop_codon (ssRNA)
# RNA: GGGAGUUCUACAGUCCGACGAUCCCAAAAAGGAGAGAGCUGAUAGUAUUCAUUCCACUCUUUUCAUAAUUGGUCAGAACAGUUAGAAAUUGCUUUUAACUAUAGUCAUGCAUUGCUUAACAAUGGGUAUACAUUCUGAGAGAUCAACAGAGGAUUGAGCAUCA
# B9: chr5:16781720:16781826:-|CDS|ENSG00000145555|unk|FALSE|bound_elsewhere (ssRNA)
# RNA: GGGAGUUCUACAGUCCGACGAUCCUUCACAGCCCCAUCAUGGAAGCUUUCGGCAAUGCGAAGACCGUGUACAACAACAACUCUAGUCGCUUUGGGAAGUUUGUUCAGCUGAACAUCUGUCAGAAAGGAAAUAUUCAGGGCGGGCAACAGAGGAUUGAGCAUCA
# B10: ENSG00000070961:be:win_551|CDS|ENSG00000070961|bound_else_gene|NA|bound_elsewhere_windowed (ssRNA)
# RNA: GGGAGUUCUACAGUCCGACGAUCUGCAGAGCCGAAUUGAACAAGAACAGAAGUUCACUGUCAUCAGGGGUGGUCAGGUCAUUCAGAUACCUGUAGCUGACAUUACUGUUGGAGAUAUUGCUCAAGUGAAAUAUGGUGAUCUUCCAACAGAGGAUUGAGCAUCA
# B11: chr5:159158860:159158961:-|CDS|ENSG00000145860|msi1|FALSE|bound_elsewhere (ssRNA)
# RNA: GGGAGUUCUACAGUCCGACGAUCCCAGGAGACCUGCCCUCUGUGCCACUGCCAUCUGAAAAACUCCUCCCAGCUUCCAGGAUUAGGAACUGAGCCAGUUCUACAGCCUCAUGCUGGAGCUGAGCAAAACGUCAUGUUUCAGGACAACAGAGGAUUGAGCAUCA
# B12: chr3:69105919:69106020:+|3pUTR|ENSG00000144746|msi1|total|mutant (ssRNA)
# RNA: GGGAGUUCUACAGUCCGACGAUCGUGCUGCUUCUGAUUUUUCUUGCAUUUUAAAUUCUCAGCCAACCUACAGCCAUGAUCUUCCGCACAGUGAUAUCACCAUGACUUCACAGACAUGGUCCCGAAUCUGUACCCUUACCCACACAACAGAGGAUUGAGCAUCA
# B13: ENSG00000169057:stop:overlap|stop_codon|ENSG00000169057|stop_codon|NA|stop_codon (ssRNA)
# RNA: GGGAGUUCUACAGUCCGACGAUCUCAAGCCUGUCGUUCCAGGACCCAGGAGGGAGAAGCAGCUGCCAGGGGAAGUCUCUUCGUAGGCGGAGGUCAGGAGUCCAAGAGGAGUGAGCAGAGUCACAGAAGCCUCUUAAAGCCUCUCAACAGAGGAUUGAGCAUCA
# B14: chr4:75597091:75597192:-|CDS|ENSG00000138769|unk|FALSE|unique (ssRNA)
# RNA: GGGAGUUCUACAGUCCGACGAUCUAUAAACUAUUUAAAAUAAAAGGCUCAAAAAUUGAUGGAGAAAAAGCUGAAAAAGGCAAUAGAGCUUCAAAUGCCAGCUGUCUCCAUGACAGUAGGACAAGCCACAACAAAAUAGUGCCUCAACAGAGGAUUGAGCAUCA
# Target: T1, UNK ZnF1-6 (called full-length)
# Test: nsRBNS (natural sequence RNA bind-n-seq); RBNS binding buffer (assumed for nsRBNS): 25 mM Tris pH 7.5, 150 mM KCl, 3 mM MgCl2, 0.01% Triton X-100, 500 ug/ml BSA, 20 U/ml SUPERase-In, 4 C; UNK is unkempt and MSI1 is Musashi-1; names of the RNAs are library labels; protein concentration not given here; high values mean tight binding
row,Binder,binding signal [enrichment R]
1,B1,0.836
2,B2,0.646
3,B3,0.742
4,B4,0.259
5,B5,0.942
6,B6,0.561
7,B7,0.713
8,B8,0.638
9,B9,0.608
10,B10,0.514
11,B11,0.594
12,B12,0.514
13,B13,1.39
14,B14,0.593
